109 sequences from the supplement of paper PMC3334620 can be followed below.

In all, about 33,000 sequences were measured (“E-score (-0.5 to 0.5)”: median about -0.043, highest 2% from about 0.37 on). The list shows a part of the results.

This assay concerns the target T1, Upc2 (UniProt Q12151).
T1 sequence: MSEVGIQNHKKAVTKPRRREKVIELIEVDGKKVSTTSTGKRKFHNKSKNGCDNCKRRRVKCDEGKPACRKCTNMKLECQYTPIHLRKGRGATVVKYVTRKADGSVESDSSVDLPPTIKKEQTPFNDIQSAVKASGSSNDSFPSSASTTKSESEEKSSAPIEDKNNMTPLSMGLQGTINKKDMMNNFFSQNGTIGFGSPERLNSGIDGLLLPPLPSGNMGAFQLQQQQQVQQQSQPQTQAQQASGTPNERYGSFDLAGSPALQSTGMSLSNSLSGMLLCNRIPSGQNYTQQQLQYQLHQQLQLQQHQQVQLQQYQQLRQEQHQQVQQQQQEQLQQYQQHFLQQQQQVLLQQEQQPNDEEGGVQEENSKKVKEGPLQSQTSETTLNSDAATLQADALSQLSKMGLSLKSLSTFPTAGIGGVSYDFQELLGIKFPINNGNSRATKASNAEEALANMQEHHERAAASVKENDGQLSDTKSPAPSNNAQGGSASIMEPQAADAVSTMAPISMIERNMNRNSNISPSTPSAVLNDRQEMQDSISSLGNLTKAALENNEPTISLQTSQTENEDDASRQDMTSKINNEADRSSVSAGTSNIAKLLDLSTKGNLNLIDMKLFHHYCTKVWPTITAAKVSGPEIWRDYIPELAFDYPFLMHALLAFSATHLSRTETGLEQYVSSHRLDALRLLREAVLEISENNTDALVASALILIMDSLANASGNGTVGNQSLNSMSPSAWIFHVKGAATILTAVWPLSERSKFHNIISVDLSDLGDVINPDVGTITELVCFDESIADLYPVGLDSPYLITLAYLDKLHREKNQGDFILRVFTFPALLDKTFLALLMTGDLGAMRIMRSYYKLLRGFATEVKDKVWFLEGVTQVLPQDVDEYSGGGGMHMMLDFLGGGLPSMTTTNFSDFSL
Nature of the assay: PBM E-score (8-mer binding enrichment) (E-score (-0.5 to 0.5)); higher = stronger / more preferred TF binding; most listed sequences are background and not binding sites. The settings on record: protein concentration: 200 nM; construct: GST-full length. The method, boiled down: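 Bound GST-tagged yeast transcription factors, applied at about 100-200 nM to double-stranded universal all-10-mer Agilent arrays, were detected with fluorescent anti-GST. Scans were normalised with masliner. A modified Wilcoxon-Mann-Whitney statistic, the E-score, was assigned to each ungapped eight-base word pooled with its reverse complement by the Universal PBM Analysis Suite.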
Take CTTCGGAC: the “PBM E-score” value worked out at 0.0731.

In the case of TGATACCA, the “PBM E-score” value was determined as 0.00459.

For CCCTCGGA, the “PBM E-score” value was 0.195.

Consider CAGGCCGA, for which the “PBM E-score” value is -0.137.

Turning to ACAACGAT, the “PBM E-score” value was 0.0582.

CTTCTCAC: the “PBM E-score” value is -0.111.

With CGACCCAG, the “PBM E-score” value came to 0.0427.

Regarding AGCCGGCG, the “PBM E-score” value is -0.0307.

With ACACGACA, the “PBM E-score” value was 0.221.

In the case of TCCGTAAA, the “PBM E-score” value stood at 0.357.

Regarding GTAGAGCA, the “PBM E-score” value was -0.15.

As for ACTCTGGG, the “PBM E-score” value was -0.181.

With AGCGCTCG, the “PBM E-score” value is 0.0458.

For the sequence CCTCGCAC, the “PBM E-score” value came to 0.242.

Regarding TCTGACCA, the “PBM E-score” value is -0.01.

With CGCGGTAG, the “PBM E-score” value was -0.0437.

Take GCTACAGA: the “PBM E-score” value was -0.142.

As to CCTGACCA, the “PBM E-score” value is -0.0686.

As to CAGACTTA, the “PBM E-score” value was -0.00925.

Regarding GCGACAAA, the “PBM E-score” value was 0.00573.

As to ACACTGAA, the “PBM E-score” value was determined as 0.116.

Take ATCTCAAA: the “PBM E-score” value was -0.0146.

As to GATATCAA, the “PBM E-score” value is -0.0695.

As to GAACTGCA, the “PBM E-score” value was -0.0845.

For TGTGGCAA, the “PBM E-score” value is -0.137.

For GACTCCAA, the “PBM E-score” value was -0.0615.

On to CAAGACTA, for which the “PBM E-score” value was -0.17.

As for CATGGGAG, the “PBM E-score” value is -0.106.

GCGGTAAA: the “PBM E-score” value is 0.184.

Consider CCCGCCCG, for which the “PBM E-score” value is 0.178.

Consider ACCTCCCC, for which the “PBM E-score” value was -0.124.

As for ATACCTCC, the “PBM E-score” value is -0.133.

Turning to ACGCTCCA, the “PBM E-score” value turned out to be 0.0069.

Turning to TCTCCGAA, the “PBM E-score” value is -0.0693.

Take AACATACC: the “PBM E-score” value amounted to 0.16.

On to AGATTGAA, for which the “PBM E-score” value is -0.024.

Take TCATACCA: the “PBM E-score” value is -0.0495.

Turning to ACAGGATA, the “PBM E-score” value worked out at 0.137.

On to CGTAGGCA, for which the “PBM E-score” value amounted to 0.0401.

Consider AATGGCTC, for which the “PBM E-score” value was -0.0554.

As to CCACAATA, the “PBM E-score” value was -0.13.

Consider CTAATTGA, for which the “PBM E-score” value is -0.105.

Consider GCAATCGC, for which the “PBM E-score” value turned out to be 0.0134.

For ATTGTCTA, the “PBM E-score” value was found to be 0.157.

On to ATCTGATA, for which the “PBM E-score” value was -0.215.

Regarding GCATACCC, the “PBM E-score” value was -0.14.

Regarding CTCTGCCA, the “PBM E-score” value is -0.155.

Take CTCGGACA: the “PBM E-score” value is 0.163.

As to CCTAACTC, the “PBM E-score” value is -0.0793.

With CAAACGTC, the “PBM E-score” value was determined as 0.197.

On to GCTCGTTA, for which the “PBM E-score” value worked out at 0.39.

For ATAACAAC, the “PBM E-score” value stood at 0.168.

On to ATATTAAC, for which the “PBM E-score” value stood at 0.17.

Regarding ATAAACCA, the “PBM E-score” value is 0.0435.

As to ATCGCCTC, the “PBM E-score” value is 0.0449.

Turning to ACTGCCGG, the “PBM E-score” value is -0.168.

Take AAAGTATC: the “PBM E-score” value turned out to be 0.0733.

For GGGATGAA, the “PBM E-score” value was -0.326.

Regarding AAAACTTC, the “PBM E-score” value was determined as 0.0711.

In the case of AGTGCTTC, the “PBM E-score” value is -0.0516.

Regarding GAAGGTGA, the “PBM E-score” value was -0.156.

For ACTACTGA, the “PBM E-score” value was -0.0395.

AGCATTAC: the “PBM E-score” value is -0.00984.

For the sequence GAGGCATA, the “PBM E-score” value is -0.0312.

As for CATTTCAA, the “PBM E-score” value was -0.00511.

With GCTGGAAA, the “PBM E-score” value was -0.214.

As for TGCCTGAA, the “PBM E-score” value is -0.0575.

As to AATCTCCG, the “PBM E-score” value is -0.231.

Take AGGAATAG: the “PBM E-score” value is -0.169.

As to CTCGGCCC, the “PBM E-score” value is -0.0606.

As to ACTCACAG, the “PBM E-score” value was -0.238.

Take CTCCGATC: the “PBM E-score” value was -0.115.

Consider AAGGCCGA, for which the “PBM E-score” value is -0.146.

ACCTACGC: the “PBM E-score” value was -0.0542.

Consider AGCTGACC, for which the “PBM E-score” value is -0.287.

As to CGCGAACG, the “PBM E-score” value was found to be 0.343.

As for GAATAGGC, the “PBM E-score” value is -0.117.

Take CGGCCTCC: the “PBM E-score” value is -0.0926.

As to AAACGATC, the “PBM E-score” value came to 0.447.

On to AGGGCACA, for which the “PBM E-score” value is -0.113.

For GATCCTCA, the “PBM E-score” value was -0.0157.

For AGCATGAT, the “PBM E-score” value was -0.239.

Turning to GGGATCCC, the “PBM E-score” value is -0.0327.

With CAGTCTCA, the “PBM E-score” value was -0.197.

On to ATGCCAGC, for which the “PBM E-score” value was -0.274.

Consider AGTAACAT, for which the “PBM E-score” value is -0.0683.

Consider ATGGACGC, for which the “PBM E-score” value is -0.084.

In the case of AGACGTAG, the “PBM E-score” value was -0.0671.

On to ACAAATCT, for which the “PBM E-score” value is 0.0248.

For ATACCATG, the “PBM E-score” value came out at 0.122.

Turning to AGGAATAA, the “PBM E-score” value was -0.0267.

As for CCGATTTA, the “PBM E-score” value turned out to be 0.0459.

Turning to ACCTAAGA, the “PBM E-score” value came out at 0.0242.

Turning to ATTGGAAG, the “PBM E-score” value is -0.198.

On to GCACAATA, for which the “PBM E-score” value is -0.0363.

Consider GATGCGAA, for which the “PBM E-score” value turned out to be 0.208.

For ATGTATCC, the “PBM E-score” value was -0.153.

For ACCCTGCC, the “PBM E-score” value was -0.246.

For GGCTCGCA, the “PBM E-score” value is 0.17.

As for CAGATTGA, the “PBM E-score” value is -0.139.

Consider CAATAGTG, for which the “PBM E-score” value was -0.167.

For the sequence GGTGGAGA, the “PBM E-score” value was -0.233.

Consider CTGGTGAC, for which the “PBM E-score” value was -0.0738.

For the sequence GGAAAGCA, the “PBM E-score” value came out at 0.0137.

Turning to CGACTTAA, the “PBM E-score” value was determined as 0.0813.

In the case of CGAACTGC, the “PBM E-score” value stood at 0.0104.

For the sequence AGAAACTG, the “PBM E-score” value is -0.0203.

Turning to GGCAATAA, the “PBM E-score” value was -0.145.

Consider CTCCTGCC, for which the “PBM E-score” value was -0.339.
